Measurements reported in PubChem BioAssay AID1851 (National Center for Advancing Translational Sciences (NCATS), 2009).
Most of the hits are listed elsewhere, so they are rarer here than in the full data. Results filed as inconclusive are left out. Calls of active or inactive are those of the source. Calls come from the whole dose curve; as a rule, active = well fitted curve in the direction sought with a large enough effect; inconclusive = small, poorly fitted or top-dose-only effect, or effect the other way; inactive = no such curve, though single readings can be large or run the other way.

target: Cytochrome P450 2D6 (Homo sapiens) (UniProt P10635); assay: Cytochrome panel assay with activity outcomes; details: recombinant CYP, pro-luciferin dealkylation, luminescence, p450-cyp2d6; series mostly up to 57.1 µM
UniProt P10635, sequence (P10635 whole entry, looked up): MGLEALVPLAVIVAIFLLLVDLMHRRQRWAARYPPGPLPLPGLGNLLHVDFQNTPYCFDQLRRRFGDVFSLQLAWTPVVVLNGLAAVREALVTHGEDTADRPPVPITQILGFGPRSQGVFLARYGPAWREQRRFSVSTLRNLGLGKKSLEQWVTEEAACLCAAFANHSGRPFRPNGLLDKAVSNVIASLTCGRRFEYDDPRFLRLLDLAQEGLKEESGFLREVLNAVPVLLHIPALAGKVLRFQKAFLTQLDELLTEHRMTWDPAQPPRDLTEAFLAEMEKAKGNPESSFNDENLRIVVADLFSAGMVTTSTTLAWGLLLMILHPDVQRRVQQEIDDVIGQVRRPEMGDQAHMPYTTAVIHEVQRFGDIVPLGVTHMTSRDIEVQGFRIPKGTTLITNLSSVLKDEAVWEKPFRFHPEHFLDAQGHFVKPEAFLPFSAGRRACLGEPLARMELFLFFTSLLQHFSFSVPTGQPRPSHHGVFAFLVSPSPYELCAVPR

Row | SMILES | AC50
1 | COc1ccc(C2=NN(C)C(=NCc3ccccc3)SC2)cc1 | active: 5.62 µM
2 | Nc1nc2ccc(OC(F)(F)F)cc2s1 | inactive
3 | CCN(C(=O)CSc1nnc(Cc2cccc3ccccc23)n1N)C1CCS(=O)(=O)C1 (configuration not stated) | inactive
4 | Nc1ccc(Sc2ccccc2CC(=O)O)cc1 | inactive
5 | CCOc1cc(/C=N/n2cnnc2)ccc1OC(=O)c1cccc([N+](=O)[O-])c1 | inactive
6 | Cc1ccc(OCCNC(=O)/C=C/c2ccc([N+](=O)[O-])cc2)cc1C | inactive
7 | C[C@@H]1C[C@H]2[C@@H]3C[C@H](F)C4=CC(=O)C=C[C@@]4(C)[C@]3(F)[C@H](O)C[C@]2(C)[C@@]1(O)C(=O)CO | inactive
